# Source: the supplement of paper PMC12217912
# The list shows a part of the results. The full chains were built here from the parent and the listed change. Inactive controls read about 0.05.
# B1: TEV protease; numbered along this chain (parent)
# chain: MGESLFKGPRDYNPISSSICHLTNESDGHTTSLYGIGFGPFIITNKHLFRRNNGTLVVQSLHGVFKVKDTTTLQQHLVDGRDMIIIRMPKDFPPFPQKLKFREPQREERICLVTTNFQTKSMSSMVSDTSCTFPSGDGIFWKHWIQTKDGQCGSPLVSTRDGFIVGIHSASNFTNTNNYFTSVPKNFMELLTNQEAQQWVSGWRLNADSVLWGGHKVFMVKPEEPFQPVKEATQL
# Variants of: B1
# Experiment: raw area under fraction-flipped curve 0-4 h after induction (AUC4h, not background-subtracted), DNA-recorder readout of cleavage of the substrate (dimensionless); higher = more cleavage of the substrate by the protease variant
# Details: temperature: 34 °C; time window: 0-4 h after rhamnose induction
# Method: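 In vivo DNA recorder in E. coli TOP10(DE3) ΔrhaA at 34 °C. Each TEVp single-site mutant (parent TEVp 0) is paired with a single-site variant of the 7-mer TEVs (canonical ENLYFQ|S). The substrate sits between flexible linkers in a Bxb1-sfGFP-TEVs-SsrA fusion, so cleavage stabilises Bxb1 and speeds flipping of a recombination array, read by NGS. The value is the raw area under the fraction-flipped curve over 0-4 h after rhamnose induction (AUC4h), with ≥20 reads per time point. It is not background-subtracted; inactive controls average about 0.047.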
# 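Note: Bxb1 expression induced with 0.2% (w/v) L-rhamnose at OD600 near 0.5, cultures sampled hourly, flipped fraction per protease–substrate barcode pair counted by paired-end Illumina sequencing.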
Variant,area with substrate ENLCFQS,area with substrate ENLLFQS,area with substrate ENLNFQS,area with substrate ENLSFQS,area with substrate ENLWFQS,area with substrate ENLDFQS,area with substrate ENLPFQS,area with substrate ENLQFQS,area with substrate ENLFFQS,area with substrate ENLHFQS
T176Q,0.0623,0.0566,0.0461,0.0274,0.069,,,,,
Q118C,,0.0581,,0.0668,,0.063,0.0282,0.07,,
S154I,0.0659,,0.0459,0.0666,,0.078,,,0.0987,0.0667
E103P,0.0717,,0.0605,0.09,0.0578,0.0527,0.0236,,0.0963,
E223D,0.0625,,,0.0582,,,,,,
E223A,0.041,,,,,,,0.0625,0.0923,
N172M,0.0706,,0.0604,0.0396,,0.0986,,,,
V58M,,0.0699,0.0624,0.079,,0.0605,,,0.0591,
F117P,0.0785,0.0662,0.0622,0.0551,0.0721,0.0611,0.0651,,,
G162N,0.0701,,0.0626,0.057,,0.0718,,,,
F218I,0.044,,,0.0466,0.0372,0.0695,0.0504,,0.0738,
W141N,,0.063,0.0551,,,0.0566,0.0578,,0.0568,0.0551
H215K,0.0655,0.068,0.0715,0.0731,0.0619,0.0602,0.0663,,0.0645,0.0682
Q198P,0.0576,,0.0696,,,0.0574,,,,0.0531
G153L,0.0491,0.0563,0.033,,,0.0486,,,0.0558,0.0294
G153T,0.0483,0.0597,0.0492,,0.0478,0.0537,,,0.0469,
Y179D,0.0852,0.0506,0.083,0.0729,,,,,0.0608,
V113W,,0.0597,,0.0623,0.0615,0.057,,,0.0657,0.0893
G8L,0.0764,,,,,0.0717,0.0723,0.0712,0.0783,
T181E,,,0.0579,,0.0618,0.0626,0.0566,,0.0525,
H143N,0.0751,0.0276,0.0591,0.0827,,,0.0407,,,
R106N,0.0991,,0.0648,0.134,,,,0.0831,0.0968,
S182V,0.0673,,,,,,0.058,,,
F92L,,,0.059,,,0.0572,,0.0613,0.0819,

# Same assay, conditions: temperature: 34 °C; time window: 0-4 h after rhamnose induction
Variant,area with substrate ENLIFQS,area with substrate ENLMFQS,area with substrate ENLEFQS,area with substrate ENLKFQS,area with substrate ENLVFQS,area with substrate ENLRFQS,area with substrate ENLGFQS
S154I,0.0706,0.0817,,,,,
E103P,0.0654,,0.0615,,,,
V58M,0.0979,,0.0589,0.0903,0.105,,
F117P,0.0733,,0.0675,,0.0798,0.0697,
G162N,,0.0717,,,,,
F218I,0.0686,,0.0308,0.0685,,,
W141N,,,0.0439,0.0647,,0.0567,
H215K,,0.0482,,0.065,0.0541,,0.0681
Q198P,0.0698,,,,,,
G153L,,,0.0542,0.045,,,0.055
G153T,,,,,0.053,0.0381,
Y179D,,,,0.0624,,,0.067
V113W,,,,0.0903,0.0735,,
G8L,,,,,,0.0721,0.081
T181E,,,0.0659,,,,
H143N,,,0.0579,,,,
R106N,0.0991,,,0.0764,,,
S182V,,,0.063,0.08,,,
F92L,,,0.0513,0.0773,,,
